Data published in PubChem BioAssay AID488969 (Vanderbilt High Throughput Screening Facility, 2010).
In all, about 110,000 compounds were measured (“z-score”: median about -0.1, highest 2% from about 2 on). The list shows a part of the results. Activity calls are given as the source filed them.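 How the source made its calls: active means z-score in the third read window above 3 or below -3; inactive means the rest.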

Target: Metabotropic glutamate receptor 8 (Rattus norvegicus) (UniProt P70579)
Experiment: mGluR8 Gi/Go-coupled signaling modulation – cell-based, rat, thallium flux, HTS, primary screen (AID 488969)
Details: HEK293 rat mGluR8, GIRK (G protein-gated inwardly rectifying potassium channel) thallium flux, FluoZin2; at 10 µM; stronger effect = higher value; submaximal glutamate (EC20) added with thallium

UniProt P70579, sequence (P70579 whole entry, looked up): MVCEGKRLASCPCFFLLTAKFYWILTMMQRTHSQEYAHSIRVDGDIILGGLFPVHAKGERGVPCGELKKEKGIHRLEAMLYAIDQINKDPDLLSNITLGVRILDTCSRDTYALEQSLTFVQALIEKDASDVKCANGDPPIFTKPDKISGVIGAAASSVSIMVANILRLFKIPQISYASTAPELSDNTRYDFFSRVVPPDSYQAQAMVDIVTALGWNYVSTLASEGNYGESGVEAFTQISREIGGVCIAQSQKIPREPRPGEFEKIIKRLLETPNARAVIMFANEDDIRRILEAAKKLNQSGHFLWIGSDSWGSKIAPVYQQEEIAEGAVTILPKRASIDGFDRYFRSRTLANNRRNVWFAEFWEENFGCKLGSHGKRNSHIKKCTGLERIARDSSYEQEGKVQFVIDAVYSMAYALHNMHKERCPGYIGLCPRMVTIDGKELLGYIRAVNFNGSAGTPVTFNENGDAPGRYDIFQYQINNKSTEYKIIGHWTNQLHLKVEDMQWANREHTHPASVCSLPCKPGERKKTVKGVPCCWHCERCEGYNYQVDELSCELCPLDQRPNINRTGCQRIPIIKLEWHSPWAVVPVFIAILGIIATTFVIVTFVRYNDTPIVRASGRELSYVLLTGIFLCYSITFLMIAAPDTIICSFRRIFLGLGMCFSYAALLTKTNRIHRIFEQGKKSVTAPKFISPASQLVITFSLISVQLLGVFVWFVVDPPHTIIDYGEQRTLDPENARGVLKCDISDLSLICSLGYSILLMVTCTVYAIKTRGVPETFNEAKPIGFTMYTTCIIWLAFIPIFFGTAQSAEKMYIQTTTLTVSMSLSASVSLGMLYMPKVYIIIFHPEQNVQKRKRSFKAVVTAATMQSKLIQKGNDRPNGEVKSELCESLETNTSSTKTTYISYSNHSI

Compared with `C(#Cc1ccc(C#CCN2CCCC2)cc1)CN1CCCC1`, `CCN1CCn2c1nc(N1CCCCC1)nc2=O` is higher in z-score: -0.647 for the first, 0.0609 for the second.

First: O=C(c1ccc(CS(=O)(=O)c2cccc(C(F)(F)F)c2)o1)N1CCN(c2ccccn2)CC1
Second: CCOC(=O)CNc1c(N2CCN(c3ccccn3)CC2)c(=O)c1=O
The z-score of the first is lower: -0.681 for the first, -0.493 for the second.

Going from `CCOC(=O)c1c(NC(=S)Nc2ccc(OC)cc2)sc2c1CCC2` to `COC(=O)c1ccc(NC(=S)Nc2ccccn2)cc1`, the z-score falls from 0.905 to 0.293.

Compared with `CN(C)C(=O)CSc1nnc(-c2cnccn2)n1C`, `Cc1cccc(-c2nc3c(c(SCC(=O)N(C)C)n2)CCCC3)c1` is lower in z-score: -0.224 for the first, -1.2 for the second.

First: CO/N=C/NC(=O)c1c(OC)ccnc1Oc1ccc(F)cc1
Second: COc1ccc(CC(=O)NCC2(c3ccc(OC)c(OC)c3)CCOCC2)cc1
The z-score of the first is higher: 0.177 for the first, -0.0286 for the second.

First: Cn1cccc1CNC(=O)Nc1ccccc1
Second: CSc1ccccc1NC(=O)Nc1cccc(Cl)c1
The z-score of the first is lower: -0.163 for the first, 0.076 for the second.

Going from `CC(c1nc2ccccc2c(=O)[nH]1)N(C)c1ccc2ccccc2c1` (configuration not stated) to `CCC(c1nc2ccccc2c(=O)n1-c1cccnc1)N1C(=O)c2ccccc2C1=O` (configuration not stated), the z-score rises from -0.151 to 0.00964.

Going from `CSc1ccc(/C=C(\C#N)C(=O)NC2CCCCC2)cc1` to `Cc1cccc(-c2nc(C#N)c(NC3CCCCC3)o2)c1`, the z-score rises from -0.555 to 0.339.

First: CCOc1cc(/C=C2/SC(=O)N(CC(=O)N3CCc4ccccc4C3)C2=O)ccc1OCC(=O)O
Second: C=CCn1c(SCC(=O)N2CCc3ccccc3C2)nc2sc(C)cc2c1=O
The z-score of the first is higher: 0.146 for the first, -1.43 for the second.

Compared with `CSc1nnc(-c2ccccc2Cl)o1`, `C=CCSc1nnc(Cc2c(C)[nH]c3ccccc23)o1` is lower in z-score: -0.168 for the first, -1.81 for the second.

Compared with `Nc1ccc(C(=O)OCC(=O)Nc2ccc([N+](=O)[O-])cc2C(F)(F)F)cc1`, `COC(=O)c1cc(C(=O)OCC(=O)N2c3ccccc3NC(=O)C2(C)C)cc([N+](=O)[O-])c1` is lower in z-score: -0.334 for the first, -0.914 for the second.

Compared with `COc1ccc(C(O)c2coc3ccc(O)c(CN(C)C)c23)cc1` (configuration not stated), `COc1ccc(CCCC(=O)NC(C)c2ccccc2)cc1` (configuration not stated) is lower in z-score: 1.14 for the first, 0.483 for the second.

First: CCc1cc(C(c2ccc(OC)c(OC)c2)N2CCOCC2)c(NC(=O)c2ccccc2)s1 (configuration not stated)
Second: COc1ccc(Nc2cc(C(=O)NCCCN3CCOCC3)c3ccccc3n2)cc1OC
The z-score of the first is lower: -0.47 for the first, 0.172 for the second.

Compared with `COCCCNC(=O)Nc1ccc2c(c1)N(C)C(=O)CS2`, `CCS(=O)(=O)N1CCC(C(=O)NCCCOC)CC1` is higher in z-score: -0.0792 for the first, 0.0117 for the second.

First: CCOC(=O)N1CCN(C(=O)C(=O)NNC(=O)COc2ccc(Cl)cc2)CC1
Second: CCc1nnc(NC(=O)CN2CCN(c3ccc(Cl)cc3)CC2)s1
The z-score of the first is lower: -0.134 for the first, 0.0568 for the second.

Compared with `CCN(CC)S(=O)(=O)c1ccc(NC(=O)CN(c2cccc(F)c2)S(C)(=O)=O)cc1`, `CN(c1cccc(NC(=O)Cc2ccccc2)c1)S(C)(=O)=O` is higher in z-score: -0.17 for the first, -0.0815 for the second.

Compared with `CCc1cc(C(=O)NNC(=S)NCc2ccccc2)cs1`, `Cc1ccc(C)c(NC(=S)NNC(=O)c2sccc2C)c1` is higher in z-score: 0.0336 for the first, 1.53 for the second.

Going from `C=C(Br)Cn1c(CC)nc2ccccc21` to `CCc1nc2oc3ccccc3c(=O)c2c(=O)n1CCOC`, the z-score falls from 0.07 to -0.0712.

First: COC(=O)CC1NCCNC1=O (configuration not stated)
Second: CN1CCN(CC(=O)Nc2ccccc2[N+](=O)[O-])CC1
The z-score of the first is higher: -0.306 for the first, -0.321 for the second.

Going from `O=C(CSc1nnnn1-c1ccccc1)NC(=O)Nc1ccc2c(c1)OCCO2` to `OCc1cn(-c2ccccc2)nc1-c1ccc2c(c1)OCCO2`, the z-score falls from -0.362 to -0.478.

Going from `Cc1ccc(C)c2nc(SCC(=O)N3CCCc4ccccc43)c(C#N)cc12` to `O=C(CSc1nc2[nH]ncc2c(=O)n1-c1ccccc1)N1CCCc2ccccc21`, the z-score falls from 0.0257 to -0.674.

Compared with `O=C1c2ccccc2C(=O)N1CCCc1c[nH]c2ccc(Cl)cc12`, `COC(=O)c1cc(-c2ccccc2)sc1NC(=O)CN1C(=O)c2ccccc2C1=O` is higher in z-score: -0.545 for the first, -0.134 for the second.

Compared with `O=C(c1cccc([N+](=O)[O-])c1)N1CCOCC1`, `O=C(Nc1cccc(S(=O)(=O)N2CCOCC2)c1)c1cc2c(s1)CCC2` is lower in z-score: -0.543 for the first, -1.2 for the second.

Going from `C/C=C(\C)CN1CCc2cc(OC)c(OC)cc2C1` to `COc1ccc2c(c1OC)CN(C)CCc1cc3c(cc1C(O)C2)OCO3` (configuration not stated), the z-score falls from 0.351 to -0.367.

Going from `NC(=O)c1ccc(-c2ccc(Br)cc2)o1` to `O=C(Nc1nc(-c2ccccc2)cs1)c1ccc(Br)o1`, the z-score rises from -0.204 to 2.96.

Compared with `CCOC(=O)CN1C(=O)C(O)=C(C(C)=O)C1c1ccc([N+](=O)[O-])cc1` (configuration not stated), `CCOc1ccccc1CNC(=O)Cn1c(=O)oc2ccccc21` is higher in z-score: -0.177 for the first, 0.263 for the second.

Going from `COc1ccc(-c2nn(-c3ccccc3)cc2/C=C(\C#N)S(=O)(=O)c2ccccc2)cc1OC` to `COc1ccc(-c2noc(CSc3nnc(CCc4ccccc4)n3-c3ccccc3)n2)cc1OC`, the z-score falls from -0.0376 to -0.152.

Compared with `O=C(c1ccncc1)c1ccc(N2CCN(C3CC(=O)N(Cc4ccccc4)C3=O)CC2)cc1` (configuration not stated), `COc1ccc(-n2c(=O)cc(N3CCN(Cc4ccccc4)CC3)[nH]c2=O)cc1` is higher in z-score: -1.23 for the first, 0.394 for the second.

Compared with `CCOC(=O)c1c(C)[nH]c(C(=O)COC(=O)c2[nH]c(C)c(C(C)=O)c2C)c1C`, `CCOC(=O)c1cc(NC(=O)N(CC)CC)c(C)nc1C` is lower in z-score: -0.211 for the first, -0.267 for the second.

First: CCCNC(=O)CN(CCc1ccccc1)S(C)(=O)=O
Second: CCCCN(CC)C(=O)CSc1cc(=O)n(C)c2ccccc12
The z-score of the first is lower: -0.00828 for the first, 0.477 for the second.

Going from `Cc1[nH]c2ccccc2c1SCC(=O)N1CCN(c2ccccc2)CC1` to `Cc1ccc(/C=C/C(=O)N2CCN(c3ccc(F)cc3)CC2)o1`, the z-score rises from -0.0539 to 1.06.

Compared with `O=C(Nc1ccccc1)c1cccc(S(=O)(=O)Nc2ccccn2)c1`, `O=C(Cc1ccccc1)Nc1nc2ccccc2s1` is higher in z-score: -0.152 for the first, 0.548 for the second.

First: C/C(Cn1nnc([N+](=O)[O-])n1)=N\NC(=O)c1ccccc1Cl
Second: CC(=O)n1cc(C(C[N+](=O)[O-])SCCN)c2ccccc21 (configuration not stated)
The z-score of the first is lower: -0.153 for the first, -0.0387 for the second.

First: CCn1c(SCC(=O)N/N=C/C=C/c2ccco2)nnc1-c1ccc(OC)cc1
Second: C=CCn1c(Cc2cccs2)nnc1SCC(=O)NCc1ccco1
The z-score of the first is lower: -0.397 for the first, 0.148 for the second.

Going from `C=CCn1c(C)cc(C(=O)CSc2n[nH]c(N)n2)c1C` to `CCCCn1c(C)cc2cc(O)ccc21`, the z-score rises from -0.0429 to 1.16.

First: CC(C)(C)c1ccc(-c2noc(CCC(=O)NCC3CCCO3)n2)cc1 (configuration not stated)
Second: Cc1ccc2cc(CN(CC3CCCO3)C(=S)Nc3ccccc3)c(=O)[nH]c2c1C (configuration not stated)
The z-score of the first is higher: 0.079 for the first, -0.0337 for the second.

Going from `O=c1c2ccccc2nc(SCc2cc(F)ccc2F)n1C1CCCC1` to `O=C(NCCC1=CCCCC1)C1CCN(c2nc3ccccc3o2)CC1`, the z-score falls from 1.66 to -0.213.

First: O=Cc1nc(-c2ccccc2Cl)n2ccccc12
Second: Cc1cccc(Nc2ncnc3ccccc23)c1
The z-score of the first is higher: 0.0232 for the first, -0.262 for the second.

Going from `Cc1cc(C)c(-c2cc(C(=O)Nc3c(C)n(C)n(-c4ccccc4)c3=O)[nH]n2)c(O)c1` to `CCCn1nc(C(=O)Oc2ccc3c(C)cc(=O)oc3c2)c2ccccc2c1=O`, the z-score falls from -0.34 to -0.836.

First: Cc1cc(C)cc(-n2nnnc2SCC(=O)Nc2cccc(NC(=O)c3ccco3)c2)c1
Second: Cc1ccc(OCc2nnc(NC(=O)c3ccco3)s2)c(C)c1
The z-score of the first is lower: -0.984 for the first, -0.238 for the second.

Compared with `O=C(O)C1CC=CCC1C(=O)c1ccccc1` (configuration not stated), `S=C(N/N=C1\C2CN3CCN(C2)CC1(c1ccccc1)C3)Nc1ccccc1` is higher in z-score: 0.235 for the first, 0.425 for the second.

Going from `CCOc1ccc2nc(NC(=O)C3CCCN(S(=O)(=O)c4cccs4)C3)sc2c1` (configuration not stated) to `COc1cc(Cl)c(S(=O)(=O)N2CCOCC2)cc1Cl`, the z-score falls from 0.284 to -0.191.

Going from `Clc1ncc(CN2CCN(Cc3ccccc3)CC2)s1` to `O=[N+]([O-])c1c(NCCO)cc(N2CCN(Cc3ccc4c(c3)OCO4)CC2)c2nonc12`, the z-score falls from 0.0236 to -0.231.

Going from `O=[n+]1c2c(n([O-])c3cc(F)ccc31)CCCC2` to `O=C(N/N=C\c1cccc(Cl)c1)c1n[nH]c2c1CCCC2`, the z-score falls from -0.257 to -0.98.

First: NS(=O)(=O)c1cccc2cccnc12
Second: Cc1cccnc1Nc1nc(-c2ccccn2)cs1
The z-score of the first is lower: -0.0814 for the first, 1.77 for the second.

Going from `CCOC(=O)C1=C(CC)OC(N)=C(C#N)C1c1cccs1` (configuration not stated) to `COc1ccc(O)c(/C=N/c2sc(C)c(C)c2C#N)c1`, the z-score rises from -0.237 to 0.454.

Compared with `O=c1[nH]c(/C(Cl)=C/c2cccc(C(F)(F)F)c2)nc2cc(Cl)ccc12`, `COc1ccccc1NC(=O)C1=C(C)Nc2nnnn2C1c1cc(Br)ccc1OC` (configuration not stated) is lower in z-score: -0.0389 for the first, -0.0888 for the second.

Going from `Cc1nc2nc(COc3ccccc3)[nH]n2c(=O)c1C` to `COc1cc(COc2ccc3c(C)c(Cc4ccccc4)c(=O)oc3c2)cc(OC)c1OC`, the z-score rises from -1.07 to -0.101.

Compared with `COc1ccc(CN2C(=O)NC3(CCCCC3)C2=O)cc1F`, `CCN(C1CCCCC1)S(=O)(=O)c1cn(C)c(=O)n(C)c1=O` is lower in z-score: 0.259 for the first, -0.233 for the second.

Going from `CCN1CCN(c2nc3c(c(=O)n(C)c(=O)n3C)n2CCSc2nccc(C)n2)CC1` to `CN1CCN(CC(=O)N/N=C/c2ccc(F)c(F)c2)CC1`, the z-score falls from 0.248 to -0.0626.

Going from `Cc1cc(/C=C2\SC(=S)N(Cc3ccco3)C2=O)c(C)n1-c1ccccc1` to `COC(=O)c1c(C)oc2ccc(N(C(=O)Oc3ccccc3)S(=O)(=O)c3ccc(Cl)c([N+](=O)[O-])c3)cc12`, the z-score falls from 0.221 to 0.134.

First: O=C(Nc1cc(-c2nn(CC(=O)N3CCCCC3)c(=O)c3ccccc23)ccc1N1CCOCC1)c1ccc(Cl)cc1
Second: O=c1nc(N2CCCCC2)nc2n1CCO2
The z-score of the first is lower: -0.701 for the first, -0.398 for the second.

First: COc1cccc(C2NC(C)(C(=O)O)C3C(=O)N(C(C)C)C(=O)C23)c1O (configuration not stated)
Second: COc1cccc(OCC(O)CN(CCO)Cc2ccccc2)c1 (configuration not stated)
The z-score of the first is lower: 0.792 for the first, 1.71 for the second.

Going from `CS(=O)(=O)Nc1ccc(Cc2ccc(NS(C)(=O)=O)cc2)cc1` to `Cc1ccc(C(=O)NCCSc2snnc2C)cc1`, the z-score rises from -0.263 to 0.171.

Going from `Cn1ncc([N+](=O)[O-])c1C(=O)Nc1nccs1` to `CCCCOCCCNc1ncnc2c1[nH]c1ccccc12`, the z-score falls from 0.0986 to -0.519.

`O=c1c2c3c(sc2nc2n1CCCC2)CCCCC3` gave a z-score of -0.277.

In the case of `CCCCN(C)CC(O)Cn1cc(/C=C/C(=O)c2cccs2)c2ccccc21` (configuration not stated), the z-score is reported as active: -3.19.
